Results: PubChem BioAssay AID2147 (National Center for Advancing Translational Sciences (NCATS), 2009)
Out of some 230,000 compounds screened, about 3,600 (1.6%) were called active. The inconclusive results got no clear call from the source; some entries with a clear call stand among them for comparison. The call rests on the fitted dose curve; in most records, active means well fitted inhibition curve with a large enough effect (not every such curve was filed as active); inconclusive means small, poorly fitted or top-dose-only effect, or another doubt; inactive means no such curve, though single readings can be large or run the other way. Where the call is inconclusive, the potency comes from a doubtful curve fit.

What follows are molecules tested against Lysine-specific demethylase 4E (Homo sapiens) (UniProt B2RXH2) (assay: qHTS Assay for Inhibitors of Human Jumonji Domain Containing 2E (JMJD2E)). Conditions: JMJD2E catalytic domain, FDH-coupled NADH fluorescence (FDH is formaldehyde dehydrogenase); series mostly up to 57.1 µM; activity change, negative = inhibition: at the top concentration.
Chain of UniProt B2RXH2 (B2RXH2 whole entry, looked up, the tested form may be a part): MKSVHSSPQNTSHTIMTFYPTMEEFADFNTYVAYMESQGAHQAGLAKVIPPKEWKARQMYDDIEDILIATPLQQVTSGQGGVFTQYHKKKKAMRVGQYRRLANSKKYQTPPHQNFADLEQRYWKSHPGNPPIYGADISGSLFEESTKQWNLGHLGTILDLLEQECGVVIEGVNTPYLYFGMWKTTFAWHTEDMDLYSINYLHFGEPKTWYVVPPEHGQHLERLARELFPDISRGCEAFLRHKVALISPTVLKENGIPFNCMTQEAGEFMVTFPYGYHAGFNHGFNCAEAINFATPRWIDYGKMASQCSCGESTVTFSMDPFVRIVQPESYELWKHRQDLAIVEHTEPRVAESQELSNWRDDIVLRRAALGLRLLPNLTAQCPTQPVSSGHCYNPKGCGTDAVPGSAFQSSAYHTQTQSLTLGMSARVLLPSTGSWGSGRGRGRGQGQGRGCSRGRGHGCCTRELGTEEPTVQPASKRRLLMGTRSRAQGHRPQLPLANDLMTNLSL
Further: nearly all actives have a fitted effect of over 50% in size.
Potency means the concentration at half of the fitted maximal effect; tags describe the fitted curve by direction and shape.
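Wherever activity change, negative = inhibition is given: 0% = wells with enzyme and -100% = buffer wells without enzyme.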

Row | Compound | Potency | activity change, negative = inhibition
1 | Cc1nc2ccc(C(=O)N/N=C/c3cc([N+](=O)[O-])ccc3O)cc2[nH]1 | active: 35.5 µM | –
2 | CCCCCCCCC(=O)Nc1cc(C)ccc1OC | – | inactive: -0.223%
3 | COC(=O)c1cc(Cl)c(NC(=O)/C=C/c2ccc(OC)cc2)cc1OC | inconclusive: 31.6 µM [inhibitor, single point] | –
4 | O=C(N/N=C/c1ccc(Cl)cc1)c1cc2c(s1)-c1ccccc1CC2 | inconclusive: 7.94 µM [inhibitor, full curve] | –
5 | CCOc1ccc(Nc2oc(-c3ccccc3Cl)nc2C#N)cc1 | inconclusive: 25.1 µM [inhibitor, partial curve] | –
6 | CCC(C)C(NC(=O)c1ccccc1NC(=O)c1ccco1)C(=O)NNC(=O)c1ccncc1 (stereo not given) | – | inactive: -9.14%
7 | Cc1ccc2cc(C)c3nnc(SCC(=O)c4cccs4)n3c2c1C | inconclusive: 39.8 µM [inhibitor, single point] | –
8 | COc1ccc(-n2cc(-c3ccccc3)c3c(N4CCN(CCO)CC4)ncnc32)cc1 | inconclusive: 28.2 µM [inhibitor, single point] | –
9 | CCN(CC)S(=O)(=O)c1ccc(NN)nc1 | inconclusive: 39.8 µM [inhibitor, single point] | –
10 | Cc1nc(N2N=C(c3ccc(Cl)cc3)CC2c2ccco2)sc1C(=O)N(C)C (stereo not given) | inconclusive: 35.5 µM [inhibitor, partial curve] | –
11 | O=C(Nc1nccs1)c1ccc(-c2ccc(Cl)cc2)o1 | inconclusive: 35.5 µM [inhibitor, partial curve] | –
12 | O=C(CN1CCN(S(=O)(=O)c2ccc(Br)cc2)CC1)Nc1ccccc1F | – | inactive: 5.33%
13 | O=C(O)/C=C\C(=O)Nc1ccccc1C#Cc1ccc(Br)cc1 | inconclusive: 22.4 µM [inhibitor, partial curve] | –
14 | CN(C)CCSc1nc(N)c2c3c(sc2n1)CN(C)CC3 | inconclusive: 25.1 µM [inhibitor, partial curve] | –
15 | CCCc1cc(=O)oc2c(CN3CCCC3)c(O)c(Cl)cc12 | inconclusive: 1.12 µM [inhibitor, full curve] | –
16 | c1ccc(C2[C@H]3CN(Cc4cccnc4)[C@H](c4ccccc4)C34CC2(c2cccnc2)C4)cc1 (stereo not given in full) | inactive | –
17 | O=C1CN(C(=O)COC(=O)C2=COCCO2)c2ccccc2N1 | – | inactive: 0.976%
18 | COc1ccc2c(c1)Cc1sc(NC(=O)c3cccnc3)nc1-2 | – | inactive: -28.2%
19 | c1coc(-c2nc(-c3ccco3)c(-c3ccco3)nc2-c2ccco2)c1 | inconclusive: 22.4 µM [inhibitor, partial curve] | –
20 | O=C(CSCc1c(Cl)cccc1Cl)NN=C1CCCC1 | – | inactive: 14.4%
21 | O=S(=O)(c1ccc(C2=CSC3=NCCN23)cc1)N1CCOCC1 | inconclusive: 39.8 µM [inhibitor, single point] | –
22 | Cc1ccc(CN2CCSc3ccc(C(=O)NC4CCN(Cc5ccccc5)CC4)cc32)cc1 | inconclusive: 28.2 µM [inhibitor, partial curve] | –
23 | CN1CCN(c2nc(C#N)cc(-c3ccccc3)n2)CC1 | inconclusive: 35.5 µM [inhibitor, single point] | –

Row | Compound | Potency | activity change, negative = inhibition
24 | CSc1nsc(N/N=C/c2ccc3c(c2)OCO3)c1C#N | inconclusive: 20 µM [inhibitor, partial curve] | –
25 | O=C(Nc1nc2n(n1)C(c1ccccc1)C=C(c1ccccc1)N2)c1ccco1 (stereo not given) | inconclusive: 31.6 µM [inhibitor, partial curve] | –
26 | COc1ccc(OC)c(S(=O)(=O)N2CCCCC2C(=O)N2CCN(c3ccccn3)CC2)c1 (stereo not given) | inconclusive: 25.1 µM [inhibitor, partial curve] | –
27 | O=C(O)CSC1=NC(=Nc2cccc(Cl)c2)C2(CCCCC2)N1c1ccccc1 | – | inactive: -12.5%
28 | O=C(Cc1csc(Nc2nc(=S)[nH]c3ccccc23)n1)NCCCN1CCN(c2cccc(Cl)c2)CC1 | inconclusive: 39.8 µM [inhibitor, single point] | –
29 | CCc1ccc(C(=O)CN2CCSC2=N)cc1 | inconclusive: 25.1 µM [inhibitor, single point] | –
30 | N#Cc1cccc(NC(=O)COC(=O)c2ccc3c(=O)n4c(nc3c2)CCC4)c1 | inconclusive: 28.2 µM [inhibitor, single point] | –
31 | COC(=O)Nc1sc2c(c1C(=O)NCc1ccco1)CCCC2 | – | inactive: -0.375%
32 | c1coc(-c2nnc(-c3ccc4c(c3)OCO4)o2)c1 | inconclusive: 28.2 µM [inhibitor, partial curve] | –
33 | O=C(Cc1ccccc1)NC(=S)Nc1ccc2oc(-c3ccccc3)nc2c1 | inconclusive: 12.6 µM [inhibitor, partial curve] | –
34 | O=C(Nc1ccc(S(=O)(=O)Nc2ncccn2)cc1)c1ccc(N2CCCC2=O)cc1 | inconclusive: 22.4 µM [inhibitor, single point] | –
35 | CC(C)c1cc(NCc2ccccn2)n2c(nc3ccccc32)c1C#N | inconclusive: 28.2 µM [inhibitor, partial curve] | –
36 | COc1ccc2[nH]c3c(NCCCN4CCCC4=O)ncnc3c2c1 | inconclusive: 28.2 µM [inhibitor, partial curve] | –
37 | CCOC(=O)C1CCN(Cc2ccc(Cl)c(Cl)c2)CC1 | inconclusive: 39.8 µM [inhibitor, single point] | –
38 | COc1ccc(NC(=O)C2=CCN(S(=O)(=O)c3ccccc3)CC2)cc1OC | – | inactive: -9.6%
39 | COc1ccc(/C=N/NC(=O)CNc2ccc(Br)cc2)c(C(=O)O)c1OC | – | inactive: -3.15%
40 | COC(=O)c1[nH]c2ccccc2c1NC(=O)C(C)N1CCN(C(=O)c2ccco2)CC1 (stereo not given) | inconclusive: 28.2 µM [inhibitor, single point] | –
41 | CCC(CO)NCc1sccc1C (stereo not given) | – | inactive: 13.5%
42 | Cc1cc(C)n2c(SCC(=O)N3CCN(S(=O)(=O)c4ccc(Cl)cc4)CC3)nnc2n1 | inconclusive: 39.8 µM [inhibitor, single point] | –
43 | CC(=O)N1N=C(c2ccncc2)OC12CCCCCC2 | inconclusive: 28.2 µM [inhibitor, partial curve] | –
44 | N#C/C(=C\c1ccncc1)c1nc2c(s1)CCCC2 | inconclusive: 22.4 µM [inhibitor, partial curve] | –
45 | Cc1cccc(NC(=O)C(=O)NCc2ccc3c(c2)OCO3)c1C | – | inactive: -22.3%
